Measurements published in US20240271082A1, “[…]-MODIFIED SAC[…] STRAINS AS PR[…] […] AGENTS” (Fzata, Inc., priority 2021, published 2024).
Read-outs that look alike come from different tables or passages of the source.

B1: anti-hIL-17A-Fc: a Fc-fusion VHH monomer against hIL-17 (protein)
chain: QVQLVQSGGGLVQAGGSLRLSCAASGGTFATSPMGWLRQAPGKGTEFVAAISPSGGDRIYADSVKGRFTISRDNAGYFIYLQMNSLKPEDTAVYYCAVRRRFDGTSYYTGDYDSWGQGTLVTVSS[human IgG1 Fc not written out]
B2: Anti-mTNF-α: a homo-dimer of VHH fused with Fc fragment, specific binding to mouse TNF-α (protein)
chain: QVQLQDSGGGLVQAGGSLRLSCAASGGTFSSIIMAWFRQAPGKEREFVGAVSWSGGTTVYADSVLGRFEISRDSARKSVYLQMNSLKPEDTAVYYCAARPYQKYNWASASYNVWGQGTQVTVSSGGGGSGGGGSGGGGSQVQLQDSGGGLVQAGGSLRLSCAASGGTFSSIIMAWFRQAPGKEREFVGAVSWSGGTTVYADSVLGRFEISRDSARKSVYLQMNSLKPEDTAVYYCAARPYQKYNWASASYNVWGQGTQVTVSS[human IgG1 Fc not written out]
B3: A3: A Fc-fusion humanized VHH monomer of Anti-human TNF-α-VHH (protein)
chain: EVQLLESGGGLVQPGGSLRLSCAASGRTFSTYAMGWFRQAPGKEREFVATVDNDGFTMHADSVKGRFTISRDNSKNTLYLQMNSLRAEDTAVYYCAAGQYSKFVESYAYWGQGTLVTVSS[human IgG1 Fc not written out]

What was measured:
hIL-17A [1] = target: T1, hIL-17A (Homo sapiens, UniProt Q16552); assay: IL-17A neutralization, HEK293 reporter cells; format: cell-based; conditions: human IL-17 reporter HEK293 cells
hIL-17A [2] = target: T1, hIL-17A; assay: ELISA binding to hIL-17A
mouse TNF-α [3] = target: T2, mouse TNF-α (Mus musculus, UniProt P06804); assay: Binding to mouse TNF-α
T2 sequence (P06804 80-235 limits assumed): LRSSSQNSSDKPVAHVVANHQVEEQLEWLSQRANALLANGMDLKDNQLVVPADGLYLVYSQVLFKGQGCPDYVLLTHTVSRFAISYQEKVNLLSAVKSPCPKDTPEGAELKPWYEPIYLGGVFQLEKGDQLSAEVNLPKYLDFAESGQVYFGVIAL

mouse TNF-α [4] = target: T2, mouse TNF-α; assay: Neutralization of mouse TNF-α cytotoxicity on L929 cells; format: cell-based
Procedure: L929 cells (FIG. 3A) were treated with 100 ng/mL of TNF-α alone (FIG. 3B) or together with monovalent anti-TNF-α (FIG. 3C) or bivalent anti-TNF-α VHH-Fc (FIG. 3D) for either 6 h or 24 h. Cell rounding (which may be indicative of apoptosis) was observed under microscope.
We constructed a prototype yeast Sb-amTNF (FZ006m) secreting an anti-mouse TNF-α VHH, which allows us to evaluate the therapeutic potential of the engineered yeast against intestinal inflammatory diseases in conventional mice. […] We therefore engineered the Sb-amTNF strain by inserting VHH/VHH-Fc cassettes into the pTEF or pTDH loci of the auxotrophic Sb strain. Sb-amTNF stably secreted functional anti-mouse TNF-α VHH/VHH-Fc as detected by ELISA and a cell culture assay (FIGS. 3A-3D).

[5] = Anti-drug antibody response after repeated dosing in mice; format: in vivo, mouse; conditions: 8-week period
Procedure: Groups of mice (n=5) were treated with PBS, Sb-amTNF (10^9 CFU/dose), or purified anti-TNF-α VHH/VHH-Fc (10 mg/Kg per injection). Oral Sb-amTNF were three courses of daily treatments, with 36 doses in total. Purified anti-mouse VHH/VHH-Fc fusion polypeptide was ip injected two courses, with 6 doses in total. Fecal and serum samples were collected for ELISA. […] Fecal samples (1:1 w/v in PBS) and serum samples (1000× dilution in PBS) were added to ELISA plates coated with purified anti-TNF VII/VHH-Fc and OD of IgA in fecal and IgG in serum samples were measured.
SbamTNF constitutively expresses a bi-valent VHH fused with human Fe. Experiments were conducted to determine whether long-term, repeated oral dosing Sb-amTNF would induce an anti-antibody response that could potentially reduce drug activity.

hTNF-α binding to TNFR2 = hTNF-α binding to TNFR2 (Homo sapiens, UniProt P01375); assay: Inhibition of hTNF-α binding to TNFR2
hTNF-α [6] = target: T3, hTNF-α (Homo sapiens, UniProt P01375); assay: Binding kinetics parameters
hTNF-α [7] = target: T3, hTNF-α; assay: ELISA binding to human TNF-α

T3 sequence (P01375 77-233 limits assumed): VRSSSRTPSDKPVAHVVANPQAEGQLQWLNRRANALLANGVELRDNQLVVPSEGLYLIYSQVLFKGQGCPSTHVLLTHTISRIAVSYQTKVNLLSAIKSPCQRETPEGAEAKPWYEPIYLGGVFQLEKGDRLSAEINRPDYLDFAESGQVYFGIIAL
T1 sequence (Q16552 24-155): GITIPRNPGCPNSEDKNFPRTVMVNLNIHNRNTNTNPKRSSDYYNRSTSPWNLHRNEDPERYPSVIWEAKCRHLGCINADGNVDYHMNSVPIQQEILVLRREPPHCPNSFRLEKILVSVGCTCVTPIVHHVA
Sequence of hTNF-α binding to TNFR2 (P01375 77-233 limits assumed): as the sequence (P01375 77-233 limits assumed) above

Molecule | neutralization of IL-17A bioactivity (hIL-17A [1]) | binding to hIL-17 / hIL-17A (hIL-17A [2]) | binding to mouse TNF-α (mTNF-α) (mouse TNF-α [3]) | neutralizing activity against mouse TNF-α cytotoxicity (mouse TNF-α [4]) | neutralizing activity against mouse TNF-α cytotoxicity (mouse TNF-α [4]; listed as anti-mouse TNF-α VHH/VHH-Fc) | neutralizing activity against mouse TNF-α cytotoxicity (mouse TNF-α [4]; listed as bivalent anti-TNF-α VHH-Fc fusion) | anti-antibody IgG in sera [5] | inhibition of hTNF-α binding to TNFR2 (hTNF-α binding to TNFR2) | Ka (hTNF-α [6]) | specificity / binding to hTNF-α (in words) (hTNF-α [7])
B1 | mediates inhibitions | specifically binds to hIL-17 |  |  |  |  |  |  |  | 
B2 |  |  | specific binding to mouse TNF-α | blockade | highest neutralizing activity | significantly more potent | potent anti-antibody IgG responses |  |  | 
B3 |  |  | barely binding to mTNF-α |  |  |  |  | inhibits hTNF-α binding | 6.257E+5 1/ms | highly specific to hTNF-α
